Where two headings read alike, the source gives them in different places. One block for each compound: values may come before it.
Experiments:
[1] = Gastrointestinal blood loss in healthy subjects, Cr51 labeled erythrocytes (Table 13); settings: 3 days
[2] = format: in vivo, human; settings: total daily dose 75 mg p.o., 4 weeks

SMILES: CC(=O)Oc1ccccc1C(=O)O [Aspirin, acetylsalicylic acid]
Mean daily blood loss (ml) ± S.D. ([1]; total daily dose 3000 mg p.o.): 1.50 ± 0.5 mL

SMILES: O=C([O-])c1ccccc1O.[Na+] [Sodium salicylate]
Mean daily blood loss (ml) ± S.D. ([1]; total daily dose 3000 mg p.o.): 1.16 ± 1.8 mL

Mean daily blood loss (ml) ± S.D. ([1]; total daily dose 600 mg p.o.): 1.45 ± 0.7 mL
SMILES: CCCCC1C(=O)N(c2ccccc2)N(c2ccccc2)C1=O [Phenylbutazone, 4-butyl-1,2-diphenyl-pyrazolidine-3,5-dione]

SMILES: COc1ccc2c(c1)c(CC(=O)O)c(C)n2C(=O)c1ccc(Cl)cc1 [Indomethacin]
Mean daily blood loss (ml) ± S.D. [2]: 3.30 ± 0.79 mL
Mean daily blood loss (ml) ± S.D. ([1]; total daily dose 150 mg p.o.): 2.75 ± 1.3 mL

Reference: patent US4200631A, “Treating mammalian subject sensitive to indomethacin ulcerogenisis” (priority 1978, dated 1980)
